Assay results published in the supplement of paper PMC12645437, “Orthogonal IMiD-Degron Pairs Induce Selective Protein Degradation in Cells” (ACS Chemical Biology, 2025).
The other results are listed elsewhere or left out.

What follows are sequences tested against no compound (DMSO) (assay: log2 fold change of degron read counts, EGFP-low vs EGFP+ sorted cells; higher = lower degron-EGFP level without compound (poor expression or instability)). Conditions: compound: DMSO control; 18 h.
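Note: jurkat cells carrying a lentiviral library of mutant zinc finger degrons fused to EGFP plus mCherry, mCherry+ cells FACS sorted, degron abundance counted by next-generation sequencing.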

Row | Sequence | log2 fold change of degron read counts
1 | FICNQCGALFTQKGNLLRHIKL | 0.0557
2 | FQCSVCGHPFTQKGNLLRHIKL | -0.66
3 | LCCPICGFWCTQKGNLLRHIKL | 1.24
4 | FKCPVCGAKFTQKGNLLRHIKL | -0.903
5 | FYCPICGRGFTQKGNLLRHIKL | -2.93
6 | FRCNQCGHLFTQKGNLLRHIKL | -0.00836
7 | LTCNQCGFQCTQKGNLLRHIKL | -0.177
8 | FNCNICGAVFTQKGNLLRHIKL | 0.149
9 | FYCPICGAFFTQKGNLLRHIKL | 1.15
10 | FMCEVCGADFTQKGNLLRHIKL | -1.53
11 | FICNQCGHRFTQKGNLLRHIKL | -0.157
12 | FQCEICGAKFTQKGNLLRHIKL | -1.32
13 | FECDQCGAWFTQKGNLLRHIKL | -2.16
14 | FMCPVCGAAFTQKGNLLRHIKL | -0.247
